# Results: publication PMC11273436 (Antibiotics, 2024)
# Legend:
# [1] = test system: H1N1 virus; type: in vivo, C57BL/6J mice
# [2] = test system: H1N1 virus; conditions: read-out: IC50 against H1N1 infection; A549 cells, mean ± SEM, 3 independent experiments
# [3] = test system: H1N1 virus; assay: microbe, parasite or virus in culture; conditions: Influenza A virus, H1N1, A549, read-out: IC50 against H1N1 infection
# [4] = C57BL/6J mice, i.p. daily for 5 days, Pc-5 10 mg/kg, RV 100 mg/kg, n = 7
Compound,"infectious viral titers in pulmonary tissue ([1]; C57BL/6J mice, day 5 postinfection, i.p. daily, Pc-5 10 mg/kg, RV 100 mg/kg, n = 7)","effect on body weight of H1N1-infected mice [1, 4]","lung inflammatory score (H&E) compared with the H1N1 group [1, 4]",IC50 [2],"effect on body weight of H1N1-infected mice ([1]; mouse, in vivo)","lung inflammatory score (H&E) compared with the H1N1 group ([1]; mouse, in vivo)",IC50 [3]
VCVKKVRKLYKKIYKCR-NH2 (disulfide) [Pc-5],significant reduction in the viral burden,ameliorated the H1N1-induced impact on body growth,lower,2470 ± 1950 nM,–,–,–
"NC(=O)c1ncn([C@@H]2O[C@H](CO)[C@@H](O)[C@H]2O)n1 [RV, ribavirin, reference compound]",–,–,–,–,ameliorated the H1N1-induced impact on body growth,lower,101 ± 29.7 µM

# Read-outs that look alike come from different tables or passages of the source.
